Test results reported in PMC4564177.
These are yes or no findings as the source states them, for the method shown. In cells and extracts the contact can be indirect. Some entries that bind do so weakly or less than the wild type. For part of these data: Tags and fused reporters may be left off the sequences shown. Each block holds one substance with its values, some of them ahead of it.

Protein sequences, listed by entry. Tags and fused reporters are not part of them. Lines headed by an entry give the natural chain unless they say otherwise; changes in a name come on top. Chains listed by the source or under a name are the forms on record and can include a tag or linker. Residues count along the entry.
myc-GFP-CRHR1 (P35347, residues 24-415): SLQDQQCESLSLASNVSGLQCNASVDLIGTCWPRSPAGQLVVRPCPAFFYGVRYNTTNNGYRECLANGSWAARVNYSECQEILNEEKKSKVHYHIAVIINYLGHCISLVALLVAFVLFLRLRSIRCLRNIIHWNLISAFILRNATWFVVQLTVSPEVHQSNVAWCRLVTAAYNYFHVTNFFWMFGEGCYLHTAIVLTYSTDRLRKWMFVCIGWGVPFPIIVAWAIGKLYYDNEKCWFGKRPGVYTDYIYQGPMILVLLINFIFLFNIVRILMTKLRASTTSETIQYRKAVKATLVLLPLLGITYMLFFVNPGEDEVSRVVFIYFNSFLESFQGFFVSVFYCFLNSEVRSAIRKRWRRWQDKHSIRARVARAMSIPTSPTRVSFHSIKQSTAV
myc-GFP-CRHR1-STAVA (P35347, form named): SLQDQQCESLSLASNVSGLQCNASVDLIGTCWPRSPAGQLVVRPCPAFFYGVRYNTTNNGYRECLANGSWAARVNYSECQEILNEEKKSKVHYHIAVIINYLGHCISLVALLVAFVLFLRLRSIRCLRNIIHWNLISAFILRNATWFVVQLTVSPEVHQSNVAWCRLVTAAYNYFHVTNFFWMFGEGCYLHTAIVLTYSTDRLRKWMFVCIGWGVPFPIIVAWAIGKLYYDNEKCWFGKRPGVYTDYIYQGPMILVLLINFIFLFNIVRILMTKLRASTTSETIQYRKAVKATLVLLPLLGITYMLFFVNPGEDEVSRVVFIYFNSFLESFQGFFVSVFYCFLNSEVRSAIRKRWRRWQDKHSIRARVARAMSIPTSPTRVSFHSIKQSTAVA
UniProt O88382: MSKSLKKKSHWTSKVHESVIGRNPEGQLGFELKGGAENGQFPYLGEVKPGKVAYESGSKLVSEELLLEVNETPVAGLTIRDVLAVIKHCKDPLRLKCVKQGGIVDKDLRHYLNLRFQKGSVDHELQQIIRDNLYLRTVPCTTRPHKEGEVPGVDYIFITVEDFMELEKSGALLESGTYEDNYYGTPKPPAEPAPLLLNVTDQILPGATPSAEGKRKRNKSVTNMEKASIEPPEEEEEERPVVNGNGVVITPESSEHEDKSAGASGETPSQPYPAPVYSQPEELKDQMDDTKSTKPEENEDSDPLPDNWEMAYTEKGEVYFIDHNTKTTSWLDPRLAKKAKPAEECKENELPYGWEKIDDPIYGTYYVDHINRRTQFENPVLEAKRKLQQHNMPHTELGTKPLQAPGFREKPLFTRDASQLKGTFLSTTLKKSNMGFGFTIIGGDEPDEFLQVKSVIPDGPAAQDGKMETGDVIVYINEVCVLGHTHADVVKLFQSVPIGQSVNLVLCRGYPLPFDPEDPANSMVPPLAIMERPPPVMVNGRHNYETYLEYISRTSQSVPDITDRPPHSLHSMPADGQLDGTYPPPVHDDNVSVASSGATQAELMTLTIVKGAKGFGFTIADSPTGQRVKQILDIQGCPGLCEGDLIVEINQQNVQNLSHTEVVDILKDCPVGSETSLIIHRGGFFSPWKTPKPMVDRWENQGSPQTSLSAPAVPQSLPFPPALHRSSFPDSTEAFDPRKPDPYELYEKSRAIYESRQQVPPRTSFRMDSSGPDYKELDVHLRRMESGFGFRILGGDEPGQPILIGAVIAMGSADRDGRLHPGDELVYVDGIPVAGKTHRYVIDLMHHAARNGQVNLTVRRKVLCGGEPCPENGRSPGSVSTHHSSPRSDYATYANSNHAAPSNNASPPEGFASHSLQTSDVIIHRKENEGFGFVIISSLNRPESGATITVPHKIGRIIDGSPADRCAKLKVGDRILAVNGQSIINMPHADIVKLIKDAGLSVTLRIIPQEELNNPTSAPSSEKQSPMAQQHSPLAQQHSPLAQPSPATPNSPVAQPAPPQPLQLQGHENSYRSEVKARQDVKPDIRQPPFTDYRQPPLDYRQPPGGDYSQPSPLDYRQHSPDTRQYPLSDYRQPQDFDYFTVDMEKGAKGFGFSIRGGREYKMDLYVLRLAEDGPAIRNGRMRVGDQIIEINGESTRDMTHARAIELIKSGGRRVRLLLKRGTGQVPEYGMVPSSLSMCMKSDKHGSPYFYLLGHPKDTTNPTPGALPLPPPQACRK
UniProt O00560: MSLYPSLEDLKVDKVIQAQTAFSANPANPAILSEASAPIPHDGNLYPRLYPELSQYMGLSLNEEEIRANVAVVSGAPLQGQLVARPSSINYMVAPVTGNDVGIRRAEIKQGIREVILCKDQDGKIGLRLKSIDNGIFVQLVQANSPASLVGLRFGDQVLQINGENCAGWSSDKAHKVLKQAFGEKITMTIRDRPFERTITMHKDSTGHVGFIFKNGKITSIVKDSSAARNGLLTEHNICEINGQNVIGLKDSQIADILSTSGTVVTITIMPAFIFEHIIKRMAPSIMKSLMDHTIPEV
UniProt Q62696: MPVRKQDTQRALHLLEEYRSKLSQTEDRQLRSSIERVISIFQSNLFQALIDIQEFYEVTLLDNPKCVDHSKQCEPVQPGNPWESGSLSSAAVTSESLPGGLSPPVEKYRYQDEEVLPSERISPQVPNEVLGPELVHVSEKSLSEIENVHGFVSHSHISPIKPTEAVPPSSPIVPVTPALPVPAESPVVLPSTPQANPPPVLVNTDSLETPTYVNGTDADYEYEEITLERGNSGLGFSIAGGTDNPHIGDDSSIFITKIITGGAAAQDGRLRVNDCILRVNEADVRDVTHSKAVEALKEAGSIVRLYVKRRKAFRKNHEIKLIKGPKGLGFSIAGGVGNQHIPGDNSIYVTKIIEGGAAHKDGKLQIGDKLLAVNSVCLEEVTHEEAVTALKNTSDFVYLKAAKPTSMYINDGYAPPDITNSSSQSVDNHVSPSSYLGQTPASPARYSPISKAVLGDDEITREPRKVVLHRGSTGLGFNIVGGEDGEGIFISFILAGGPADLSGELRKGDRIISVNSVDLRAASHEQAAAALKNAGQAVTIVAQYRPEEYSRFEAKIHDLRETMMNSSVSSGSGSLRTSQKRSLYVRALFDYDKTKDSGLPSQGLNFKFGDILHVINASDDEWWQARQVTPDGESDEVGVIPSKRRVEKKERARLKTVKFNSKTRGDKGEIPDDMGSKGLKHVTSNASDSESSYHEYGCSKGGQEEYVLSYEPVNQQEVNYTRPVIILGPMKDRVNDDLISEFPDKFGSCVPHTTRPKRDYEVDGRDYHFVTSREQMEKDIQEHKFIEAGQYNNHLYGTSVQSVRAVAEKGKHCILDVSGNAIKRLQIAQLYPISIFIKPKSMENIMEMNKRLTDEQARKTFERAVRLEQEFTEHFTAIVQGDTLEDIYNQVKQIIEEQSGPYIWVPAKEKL
flag-CRHR1 (P34998, residues 24-415): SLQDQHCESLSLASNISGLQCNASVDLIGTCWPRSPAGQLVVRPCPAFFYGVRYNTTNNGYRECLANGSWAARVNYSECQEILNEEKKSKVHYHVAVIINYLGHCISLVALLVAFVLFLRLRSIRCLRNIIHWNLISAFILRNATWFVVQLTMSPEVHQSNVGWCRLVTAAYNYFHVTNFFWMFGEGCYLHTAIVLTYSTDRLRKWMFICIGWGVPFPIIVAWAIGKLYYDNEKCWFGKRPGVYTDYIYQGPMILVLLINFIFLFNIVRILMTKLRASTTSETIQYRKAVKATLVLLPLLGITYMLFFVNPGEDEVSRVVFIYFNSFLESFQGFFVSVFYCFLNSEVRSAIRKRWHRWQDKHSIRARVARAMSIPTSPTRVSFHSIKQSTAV
flag-CRHR1-STAVA (P34998-2, form named): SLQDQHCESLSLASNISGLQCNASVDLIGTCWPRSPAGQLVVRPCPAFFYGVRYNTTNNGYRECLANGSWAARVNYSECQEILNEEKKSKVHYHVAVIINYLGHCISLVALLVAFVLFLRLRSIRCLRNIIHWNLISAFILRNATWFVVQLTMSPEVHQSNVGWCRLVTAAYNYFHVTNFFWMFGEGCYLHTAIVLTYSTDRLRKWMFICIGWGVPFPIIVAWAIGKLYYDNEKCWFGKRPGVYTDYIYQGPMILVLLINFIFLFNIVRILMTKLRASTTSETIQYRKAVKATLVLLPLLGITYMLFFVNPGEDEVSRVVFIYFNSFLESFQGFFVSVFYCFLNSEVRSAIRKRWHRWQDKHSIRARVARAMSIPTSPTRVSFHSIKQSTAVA

Assays:
Test in all cases: co-IP; lysates of HEK293 cells transiently co-transfected; IP overnight at 4°C with anti-GFP, anti-myc, anti-HA or anti-flag and Protein G Dynabeads; washes with 500 mM NaCl, 0.1% SDS, 0.5% Triton X-100; immunoblot; for syntenin-1 under basal conditions and after CRH (100 nM) treatment
myc-GFP-CRHR1 (mouse) = myc-GFP-CRHR1 (mouse) (UniProt P35347)
[1] = target: myc-GFP-CRHR1-STAVA (mouse) (UniProt P35347)
myc-MAGI2 (rat) = myc-MAGI2 (rat) (UniProt O88382)
syntenin-1-myc = syntenin-1-myc (UniProt O00560)
HA-SAP97 (rat) = HA-SAP97 (rat) (UniProt Q62696)
flag-SAP102 (mouse) = target: T1, flag-SAP102 (mouse) (UniProt P70175)
T1 sequence: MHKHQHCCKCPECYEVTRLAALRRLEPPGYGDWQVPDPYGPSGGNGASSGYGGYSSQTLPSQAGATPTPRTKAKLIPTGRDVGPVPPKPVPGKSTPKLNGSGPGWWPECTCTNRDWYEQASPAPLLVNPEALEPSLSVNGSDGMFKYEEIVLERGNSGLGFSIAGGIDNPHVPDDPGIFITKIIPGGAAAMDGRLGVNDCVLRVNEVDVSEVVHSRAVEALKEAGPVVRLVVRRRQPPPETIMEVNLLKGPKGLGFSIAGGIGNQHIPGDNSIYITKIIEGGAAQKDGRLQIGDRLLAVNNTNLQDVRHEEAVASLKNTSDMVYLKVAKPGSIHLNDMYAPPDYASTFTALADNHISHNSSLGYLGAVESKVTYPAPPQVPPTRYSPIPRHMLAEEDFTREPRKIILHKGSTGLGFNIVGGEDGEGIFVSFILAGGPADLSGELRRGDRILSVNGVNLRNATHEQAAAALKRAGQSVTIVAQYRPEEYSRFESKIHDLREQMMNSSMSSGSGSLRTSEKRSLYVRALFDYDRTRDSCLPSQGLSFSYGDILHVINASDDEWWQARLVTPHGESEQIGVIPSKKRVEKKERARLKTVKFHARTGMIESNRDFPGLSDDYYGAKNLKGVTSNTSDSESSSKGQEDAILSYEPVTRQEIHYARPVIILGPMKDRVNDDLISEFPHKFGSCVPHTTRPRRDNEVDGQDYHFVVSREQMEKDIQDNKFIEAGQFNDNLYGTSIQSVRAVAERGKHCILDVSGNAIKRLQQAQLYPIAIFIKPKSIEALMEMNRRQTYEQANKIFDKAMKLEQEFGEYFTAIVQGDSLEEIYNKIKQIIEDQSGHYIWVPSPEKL

flag-CRHR1 (human) = flag-CRHR1 (human) (UniProt P34998)
flag-CRHR1-STAVA (human) = flag-CRHR1-STAVA (human) (UniProt P34998)

binding (myc-GFP-CRHR1 (mouse)): binds
binding [1]: no binding
Substance: HA-SAP97 (from UniProt Q62696 1-911)

Substance: flag-CRHR1 (from UniProt P34998-2 24-415) (receptor)
binding (myc-MAGI2 (rat)): binds
binding (syntenin-1-myc): no binding

binding (myc-MAGI2 (rat)): no binding
Substance: flag-CRHR1-STAVA (from UniProt P34998-2 24-415) (receptor)

binding (HA-SAP97 (rat)): binds
binding (flag-SAP102 (mouse)): binds
Substance: myc-GFP-CRHR1 (from UniProt P35347 24-415) (receptor)

binding (HA-SAP97 (rat)): no binding
binding (flag-SAP102 (mouse)): no binding
Substance: myc-GFP-CRHR1-STAVA (from UniProt P35347 24-415) (receptor)

Substance: myc-MAGI2 (from UniProt O88382 1-1277)
binding (flag-CRHR1 (human)): binds
binding (flag-CRHR1-STAVA (human)): no binding

Substance: syntenin-1-myc (from UniProt O00560 1-298)
binding (flag-CRHR1 (human)): no binding
